Test results published in ChEMBL document CHEMBL1938231 (J Med Chem, 2011).

Tests used:
[1] = molecular target: T1, Tyrosine-protein kinase JAK2 (Homo sapiens, UniProt O60674)
[2] = molecular target: T1, Tyrosine-protein kinase JAK2; type: cell-based
[3] = molecular target: T1, Tyrosine-protein kinase JAK2; settings: baf3
[4] = molecular target: T1, Tyrosine-protein kinase JAK2; type: cell-based, Blood

| IC50 [1] [nM] | IC50 [2] [nM] | IC50 [3] [nM] | IC50 [4] [nM] | Structure (SMILES) |
| --- | --- | --- | --- | --- |
| 58 |  |  |  | CNC(=O)c1cnc(N)c2cc(-c3ccccc3)sc12 |
|  | 48 | 1010 | 1480 | CNC(=O)c1cnc(N)c2cc(-c3ccc(S(=O)(=O)NC(C)(C)C)cc3)sc12 |
| 4 |  | 1370 |  | CNC(=O)c1cnc(N)c2cc(-c3ccc(C(C)(C)C#N)cc3)sc12 |
| 100 |  |  |  | Nc1ncc(C(=O)NCc2ccccc2)c2sc(-c3ccc(N4CCOCC4)cc3)cc12 |
| 10 |  |  |  | CNC(=O)c1cnc(N)c2cc(-c3ccc(C(C)(C)C)cc3)sc12 |
| 3 | 135 | 959 | 3950 | COCCNC(=O)c1cnc(N)c2cc(-c3ccc(S(=O)(=O)NC(C)(C)C)cc3)sc12 |
| 19 | 761 | > 25000 | > 25000 | NC(=O)c1cnc(N)c2cc(-c3ccc(N4CCOCC4)cc3)sc12 |
| 1170 |  |  |  | CC(C)(C)NC(=O)c1cnc(N)c2cc(-c3ccc(N4CCOCC4)cc3)sc12 |
| 48 |  |  |  | CCNC(=O)c1cnc(N)c2cc(-c3ccc(N4CCOCC4)cc3)sc12 |
| 2 | 148 | 1620 | 2190 | CC(C)(C)NS(=O)(=O)c1ccc(-c2cc3c(N)ncc(C(=O)NCCN4CCOCC4)c3s2)cc1 |
| 5 |  | 2130 |  | CC(C)(C)NS(=O)(=O)c1ccc(-c2cc3c(N)ncc(C(=O)NCCN4CCCCC4)c3s2)cc1 |
| 72 |  |  |  | Nc1ncc(C(=O)Nc2ccccc2)c2sc(-c3ccc(N4CCOCC4)cc3)cc12 |
| 5 |  | 4720 |  | CC(C)(C)NS(=O)(=O)c1ccc(-c2cc3c(N)ncc(C(=O)NCCCN4CCOCC4)c3s2)cc1 |
| 8 | 515 | 2400 | 7830 | CN(C)CCNC(=O)c1cnc(N)c2cc(-c3ccc(S(=O)(=O)NC(C)(C)C)cc3)sc12 |
| 27 |  | 12600 |  | CNC(=O)c1cnc(N)c2cc(-c3ccc(C)cc3)sc12 |
| 8 |  |  |  | CC(C)(C)NS(=O)(=O)c1ccc(-c2cc3c(N)ncc(C(=O)NCCO)c3s2)cc1 |
